Results from PubChem BioAssay AID2546 (National Center for Advancing Translational Sciences (NCATS), 2010).
About 11,000 (3.5%) of roughly 310,000 compounds were called active. This list was built around the results that the source calls inconclusive (neither active nor inactive); the mix of calls is not that of the screen. Calls follow the shape of the dose curve; as a rule, active = well fitted inhibition curve with a large enough effect; inconclusive = small, poorly fitted or top-dose-only effect, or effect the other way; inactive = flat fitted curve, though single readings scatter. No potency is given beside an inconclusive call; the fits are too rough.

experiment: VP16 counterscreen qHTS for inhibitors of ROR gamma transcriptional activity; details: Drosophila S2 Gal4-VP16 UAS-luciferase, luminescence, 20 h; activity, negative = inhibition: at 53.6 µM (top of the series);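 also: Gal4-VP16 expression switched on by copper sulfate through the metallothionein promoter; nearly all actives have a fitted effect of over 50% in size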
% is scaled to controls: 0 for no effect and ±100 for the full control effect; potency is read from the fitted curve at half-maximal effect; tags tell the direction and shape of the fitted curve.

Compound	Potency	activity, negative = inhibition
CCn1c(Sc2nc(C)nc3scc(-c4cccs4)c23)n[nH]c1=O	inconclusive [inhibitor, single point]	–
C/C(=N\Nc1ncc(Cl)cc1Cl)c1ccc(S(=O)(=O)NCc2ccco2)cc1	active: 3.16 µM	–
CCNC(=S)N=Nc1c(O)[nH]c2ccc(C(C)C)cc12	active: 7.08 µM	–
CC(C)n1cnc2c(NCc3ccccc3)nc(NCCO)nc21	inconclusive [inhibitor, single point]	–
c1ccc(Cc2nn3c(COc4ccccc4)nnc3s2)cc1	–	inactive: 17% [at 0.365 µM]
O=C(N[C@@H](Cc1ccccc1)C(=O)OCc1ccccc1)c1nc[nH]c1C(=O)NCc1ccccc1	inconclusive [inhibitor, single point]	–
CN1CCN(C(=O)c2ccc3c(=O)n(Cc4ccc(Cl)cc4)c(=S)[nH]c3c2)CC1	inconclusive [inhibitor, single point]	–
CCOC(=O)C1=C(c2ccccc2)OC(N)=C(C#N)C1c1ccncc1 (configuration not stated)	inconclusive [inhibitor, single point]	–
COc1ccccc1-c1cc(C(=O)Nc2cc(C)nn2-c2ccccc2)no1	inconclusive [inhibitor, single point]	–
Cn1nc(-c2ccc(Cl)cc2)c2cc(C(=O)NCc3ccco3)sc21	inconclusive [inhibitor, single point]	–
Cc1ccc(/C=N/NC(=O)c2ccc(NC(=O)c3ccccc3Cl)cc2)o1	inconclusive [inhibitor, partial curve]	–
CN(C)S(=O)(=O)N1CCC(Oc2cccc(C(=O)NC3CCCCCC3)c2)CC1	inconclusive [inhibitor, single point]	–
C=CCSC1=C(C#N)C(c2ccccc2Cl)C(C(=O)c2cccs2)C(O)(C(F)(F)F)N1 (configuration not stated)	inconclusive [inhibitor, single point]	–
O=C1NC(=S)CN1c1ccccc1	inconclusive [inhibitor, single point]	–
COc1c(C)cc(C(=O)C2CCCN(C(=O)c3ccc4cc[nH]c4c3)C2)cc1C (configuration not stated)	inactive	–
CCOC(=O)c1c(C)[nH]c(C(=O)C(C)OC(=O)c2cccc(OCc3c(C)noc3C)c2)c1C (configuration not stated)	inconclusive [inhibitor, partial curve, poor fit]	–
O=C(NC1CCCC1)C(=O)N(c1ccccc1F)C(C(=O)NCC1CCCO1)c1cccs1 (configuration not stated)	inconclusive [inhibitor, single point]	–
